# Measured values: PubChem BioAssay AID504332 (National Center for Advancing Translational Sciences (NCATS), 2011)
# Where “and” joins values, the source holds several entries; their conditions need not be identical. Identical values can stand only once. The campaign covered roughly 350,000 compounds. About 31,000 (8.9%) were called active. Inconclusive results, whose numbers are uncertain, are shown with a selection of clear calls. The call rests on the fitted dose curve; in most records, active means well fitted inhibition curve with a large enough effect; inconclusive means small, poorly fitted or top-dose-only effect; inactive means no such curve, though single readings can be large or run the other way. Where the call is inconclusive, the potency comes from a doubtful curve fit. More than one record can exist for a structure, and the calls need not agree.
# Target: Histone-lysine N-methyltransferase EHMT2 (Homo sapiens) (UniProt Q96KQ7)
# Assay: qHTS Assay for Inhibitors of Histone Lysine Methyltransferase G9a; further: nearly all actives have a fitted effect of over 75% in size
# Details: G9a H3K9 monomethylation, AlphaScreen, 2 h; activity, negative = inhibition: at 59 µM (top of the series) unless noted
# Procedure, shortened: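 AlphaScreen read-out: biotin-H3K9 peptide (500 nM) methylation by 20 nM enzyme with 20 uM SAM, 2 h at room temperature after 15 min compound preincubation; anti-monomethyl H3K9 antibody plus donor/acceptor beads, 10 min dark.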
# On the % scale 0 is the no-effect control and ±100 the full control effect; potency means the concentration at half of the fitted maximal effect; tags describe the fitted curve by direction and shape.
# Sequence of UniProt Q96KQ7 (Q96KQ7 whole entry, looked up): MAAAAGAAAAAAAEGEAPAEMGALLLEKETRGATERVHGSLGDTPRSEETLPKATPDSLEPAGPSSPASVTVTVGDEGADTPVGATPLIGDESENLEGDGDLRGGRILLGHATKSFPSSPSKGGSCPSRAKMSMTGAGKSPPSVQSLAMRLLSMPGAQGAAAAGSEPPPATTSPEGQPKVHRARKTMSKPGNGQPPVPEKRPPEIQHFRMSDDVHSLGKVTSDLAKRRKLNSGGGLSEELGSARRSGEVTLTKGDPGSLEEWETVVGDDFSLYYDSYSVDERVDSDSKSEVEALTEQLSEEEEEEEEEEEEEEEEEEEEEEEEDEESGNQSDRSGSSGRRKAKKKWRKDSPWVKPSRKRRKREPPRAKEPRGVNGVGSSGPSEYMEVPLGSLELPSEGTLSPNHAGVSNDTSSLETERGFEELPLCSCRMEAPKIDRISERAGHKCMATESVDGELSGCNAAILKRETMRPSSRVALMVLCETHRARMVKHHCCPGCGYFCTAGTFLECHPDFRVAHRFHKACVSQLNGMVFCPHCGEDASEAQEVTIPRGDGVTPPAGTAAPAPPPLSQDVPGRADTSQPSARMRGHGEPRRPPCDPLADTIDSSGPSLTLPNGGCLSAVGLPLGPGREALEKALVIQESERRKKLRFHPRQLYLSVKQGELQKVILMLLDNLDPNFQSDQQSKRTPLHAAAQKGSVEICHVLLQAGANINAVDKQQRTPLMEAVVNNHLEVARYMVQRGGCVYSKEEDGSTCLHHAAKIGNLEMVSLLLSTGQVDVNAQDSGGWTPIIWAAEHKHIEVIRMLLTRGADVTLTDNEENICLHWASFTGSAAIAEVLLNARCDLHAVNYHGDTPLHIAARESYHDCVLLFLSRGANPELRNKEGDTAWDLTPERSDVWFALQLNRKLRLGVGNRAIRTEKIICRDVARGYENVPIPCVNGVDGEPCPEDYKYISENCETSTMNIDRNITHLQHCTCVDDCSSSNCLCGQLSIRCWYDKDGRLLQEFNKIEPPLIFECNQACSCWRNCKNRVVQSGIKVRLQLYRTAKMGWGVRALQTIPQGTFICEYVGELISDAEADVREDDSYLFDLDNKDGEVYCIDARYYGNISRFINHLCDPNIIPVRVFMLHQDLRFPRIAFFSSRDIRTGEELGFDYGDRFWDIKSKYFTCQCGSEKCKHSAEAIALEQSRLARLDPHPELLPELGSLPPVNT
Compound,Potency,"activity, negative = inhibition"
COc1ccc2ccc3c(c2c1)N=CC1(O3)N(C)c2ccccc2C1(C)C (centres undefined),active: 5.62 µM,–
CN(C)c1ccc(N/C(N)=N/c2nc(C(F)(F)F)cc(C(F)(F)F)n2)cc1,active: 12.6 µM,–
O=C(NC1CCCc2ccccc21)C1CCN(C(=O)c2sccc2-n2cccc2)CC1 (centres undefined),–,inactive: -7.78%
CCN(c1ccccc1)S(=O)(=O)c1cc2c(cc1C)N(C)CCO2,active: 79.4 µM,–
CC1=C(C(=O)Nc2ccc(C)cc2C)C(c2ccccc2)n2nc(SCC(=O)c3ccc(C)cc3)nc2N1 (centres undefined),"inconclusive: 25.1 µM [inhibitor, partial curve, poor fit]",–
N/C(=N\OC(=O)c1cccc([N+](=O)[O-])c1)c1ccccn1,"inconclusive: 79.4 µM [inhibitor, single point]",–
O=C(CN1CCN(C(=O)c2cccs2)CC1)Nc1ccc(Br)cc1,"inconclusive: 79.4 µM [inhibitor, partial curve, poor fit]",–
N#Cc1ccccc1NS(=O)(=O)c1cc2c3c(c1)CCC(=O)N3CCC2,"inconclusive: 4.47 µM [inhibitor, partial curve, poor fit]",–
CC(Sc1ncn[nH]1)C(=O)Nc1ccc(Cl)cn1 (centres undefined),"inconclusive: 79.4 µM [inhibitor, partial curve, poor fit]",–
Nc1nc(NCCN2CCOCC2)nc(NCc2ccccc2)c1[N+](=O)[O-],–,inactive: -4.88% [at 102 µM]
COc1cc(/C=C2/NC(=O)N(c3cccc(Cl)c3)C2=O)ccc1O,–,inactive: -2.16% [at 102 µM]
CCn1nnnc1SCC(=O)N1CCCc2ccccc21,–,inactive: 2.64%
Cc1cccc(NS(=O)(=O)c2nnc(NC(=O)c3ccc(Cl)cc3)s2)c1,"inconclusive: 56.2 µM [inhibitor, partial curve, poor fit]",–
O=C(CN1CCN(c2ccccc2)CC1)Nc1nccs1,"inconclusive: 10 µM [inhibitor, partial curve]",–
COc1cc(/C=N/N(C)c2ccccc2)cc(Cl)c1O,"inconclusive: 2.82 µM [inhibitor, partial curve, poor fit]",–
COc1ccccc1CNC(=O)C(=O)Nc1nccs1,"inconclusive: 70.8 µM [inhibitor, partial curve, poor fit]",–
CCOC(=O)c1c(N2C(=O)Nc3ccccc3N2O)sc2c1CCCC2,–,inactive: 6.67%
COc1ccc(S(=O)(=O)Nc2ccc(S(=O)(=O)N3CCCCC3)cc2)cc1,"inconclusive: 8.91 µM [inhibitor, single point]",–
Cc1ccc(NC(=O)Nc2nnc(-c3ccncc3)s2)cc1,"inconclusive: 44.7 µM [inhibitor, partial curve]",–
COc1ccc(NC(=O)CN2CCN(S(=O)(=O)N3CCCCCC3)CC2)cc1,–,inactive: 22.9%
COc1ccc(N2CCN(C(=O)CCNS(=O)(=O)c3ccc(C)cc3)CC2)cc1,active: 50.1 µM,–
Cc1onc(-c2ccccc2)c1C(=O)Nc1nnc(COc2ccc(Cl)cc2)s1,"inconclusive: 1 µM [inhibitor, full curve, poor fit]",–

Compound,Potency,"activity, negative = inhibition"
CCN(CC(=O)Nc1ccccc1OC)C(=O)CC1CC2CCC1C2 (centres undefined),–,inactive: -48.1%
Oc1ccc(-c2nc(-c3ccc(F)cc3)c(-c3ccncc3)[nH]2)cc1,inactive and active: 12.6 µM,–
CCS(=O)(=O)c1ccc2oc(Nc3cc(Cl)ccc3OC)nc2c1,active: 35.5 µM,–
O=C(CCS(=O)(=O)Cc1ccccc1)N1CCN(c2ccc([N+](=O)[O-])cc2)CC1,"inconclusive: 79.4 µM [inhibitor, partial curve, poor fit]",–
CCCCn1c(N)c(N(CC(C)C)C(=O)CCCc2nc3ccccc3c(=O)[nH]2)c(=O)[nH]c1=O,"inconclusive: 14.1 µM [inhibitor, partial curve, poor fit]",–
CCCCn1nc(C(=O)N2CCN(S(=O)(=O)c3ccccc3)CC2)c2ccccc2c1=O,–,inactive: -39.7% [at 102 µM]
CCN(CC)C(=O)CS(=O)(=O)CC(=O)Nc1cc(OCCOC)c(Cl)cc1Cl,active: 50.1 µM,–
CCC1CSC(Nc2ccc(C(=O)/C=C/c3ccc(Oc4ccccc4)cc3)cc2)=N1 (centres undefined),"inconclusive: 2.82 µM [inhibitor, partial curve, poor fit]",–
Cc1nn(C(C)(C)C)c(NC(=O)c2ccccc2)c1C#N,"inconclusive: 56.2 µM [inhibitor, partial curve, poor fit]",–
CC(NC(=O)c1ccccc1NC(=O)c1ccco1)C(=O)O (centres undefined),"inconclusive: 39.8 µM [inhibitor, single point]",–
CNC(=O)CC1C(=O)N(c2ccc(F)cc2)C(=S)N1NC(=O)c1ccc(Cl)cc1 (centres undefined),–,inactive: 2.62% [at 102 µM]
Cc1ccc(NC(=S)N=Nc2c(O)n(C)c3ccc(S(=O)(=O)N4CCOCC4)cc23)cc1C,–,inactive: -21.3% [at 102 µM]
OC12CCCCC1C(c1ccc3c(c1)OCO3)N(Cc1cccc(F)c1)CC2 (centres undefined),"inconclusive: 35.5 µM [inhibitor, single point]",–
O=C1NC(=O)c2cc3ccccc3cc21,"inconclusive: 35.5 µM [inhibitor, single point]",–
CCN(CC)c1ccc(C=Nc2ccc(OC)c(S(=O)(=O)N3CCOCC3)c2)c(O)c1,–,inactive: -6.51% [at 12.7 µM]
COc1ccccc1NC(=O)c1cc2cc(Br)ccc2cc1O,"inconclusive: 56.2 µM [inhibitor, partial curve, poor fit]",–
O=C1c2ccccc2C(Nc2cccnc2)N1Cc1ccc2c(c1)OCO2 (centres undefined),"inconclusive: 79.4 µM [inhibitor, single point]",–
CC1CCCCN1C(=O)COC(=O)c1cc(-c2cccs2)nn1-c1ccccc1 (centres undefined),–,inactive: 25.8% [at 12.7 µM]
Cc1ccnc(SCC(=O)c2ccc(Br)cc2)c1C#N,active: 50.1 µM,–
COc1ccc(S(=O)(=O)N(Cc2nc3ccccc3c(=O)[nH]2)C2CCCC2)cc1,"inconclusive: 7.08 µM [inhibitor, single point]",–
O=C(N/N=C/c1cc(Cl)cc([N+](=O)[O-])c1O)NC12CC3CC(CC(C3)C1)C2,active: 10 µM,–
O=C(NC1CCCCCC1)c1c(O)c2cccc3c2n(c1=O)CCC3,"inconclusive: 1.78 µM [inhibitor, full curve, poor fit]",–
